Read counts are not given, so values of variants with three or more changes are uncertain.

The labels stand for the following.
B1: LINE1-mini (parent)
chain: GGCAGAGCUCAACACAGCGUGGCAAAGUGGCUGUGGCUAGACUGCC

Variants of B1 are the subject of this data set. As to the kind of experiment: self-cleavage, relative activity (ratio to wild type); higher = more cleavage; in vitro, sequencing; the parent is a self-cleaving ribozyme.
With GACAGAGCUCAACACAGCUUGGUAAAGUGGCUGUCGCUAGACUGCC, the self-cleavage was 0.2.
To GACAUAGCUUAACACAGCGUGCCAAAGUGGCUGUGGCUAGACUGCC belongs 0.04; to GACAGAUCUCAACACAGGGUGGUAAGGUGGCUGUGGCUAGACUGCG, 0.11; to GACAGAGCUCAACACAGCGUGGCAAAGUGACUAUGGCUAGACUGCU, 0.11.
Consider GACAGAUCUCAGCACAGCGUGGCAAAGUGGCUGUGGCUAGACUGCC, for which the self-cleavage stood at 0.01.
The result for GACAGACCACAUCACAGCAUGGCAAACUGGCUGUGGCUAGACUGCC reads 0.21.
The result for GACAGAGCUCAACACAGCGUGGCAAAGUGACUGUGGCCAGACUGAC reads 0.23; that for GACAGAGCUCAACACAGCGUUGCAAAGUGGCUGUGCCUAGACUGCC, 0.14.
As for GACAGACCUAAACACAGCGUAGCAAAGUGCCUGUGGGUAGACUGCC, the self-cleavage was 0.02.
The result for GACAGAGCUCAACACAGCGUGCCAAAGUGGCUGUUGCUAGAUUGCC reads 0.94; that for GACAGAGCUCAACACAGCGUGGCAAAUUGGCUGUGGCUAGAUUGCC, 0.11.
GACAGACCUCAACACAGCGUGGCAAAGUGGCUGUGGCUAGUCUGCC: the self-cleavage was 0.21.
Regarding GACAUAGCUCAACACAGCGUAGCAAAGUGUCUGCGGCUAGACUGCC, the self-cleavage was 0.04.
With GACAGAGCUCAACACAGCGUUGCAAAGUGGCUGUGGCCAGACUGCC, the self-cleavage came out at 0.56.
To GACAGAGCUCAACACAGCGUUGCAAAGUGGCUAUCGCUAGACUGCC belongs 0.11.
For the variant GACAGAGCUCAACACAGCGUGGCAAAGUCGCGGUGGCUAGACUGCA, the self-cleavage came to 0.07.
Consider GACAGAUCUCAACACAGCGUGGCAAAGUGGCUCUGGCUAAACUGCC, for which the self-cleavage is 0.26.
To GACAGAGCUCAACACAGCGUCGCAAAGUGGCUGUGGCUAGACUGCU belongs 0.69.
GACAGAGCUCAACACAGCGUUGCAAAGUGGAUCUGGCUAGACUGCC: the self-cleavage came out at 0.04.
On to GACAGAGCUCAACACAGCAUGGUAAAGAGGCUGUGGCUAGACAGCC, for which the self-cleavage worked out at 0.49.
The result for GACAGAGCUCAACACAGCGUGCCAAAGUGGCUGUGGCUAUACUGCC reads 0.05; that for GACAGAGCUCAACACAUCGUGUCAAAGUGGCUGUGGCUGGACUGCC, 0.04.
Turning to GACAGAGCUCAACACAGCGUCGCAAAGUGGCUGUGGCUCGACUGCC, the self-cleavage is 0.04.
In the case of GACAGAGCUCAACACAACGUGGUAAGAUGGCUGUGGCUAGACUGCC, the self-cleavage was 0.44.
Consider GACAGACCUCAACACAGCGUGGCAAAGUGGCUGUGGCGAGACUGCC, for which the self-cleavage stood at 0.01.
For the variant GACAGAGCUCAACACAGCGUAGCAAAGUAGCUGUGGCUAGACUGCC, the self-cleavage stood at 1.64.
Regarding GACAGAGCUCAACACAACUUGGCAUAGUGGCUUUGGCUGGAAUGCC, the self-cleavage was determined as 0.06.
With GACAGACCUCAACACAGCGUGGUAAAGUGGCUGUGGCUAGACUGCC, the self-cleavage is 0.38.
In the case of GACAGAGCUCAACACAGCUUGGCAAAGUGUCUGUGGCUAGAUUGCC, the self-cleavage worked out at 0.07.
Turning to GACAGACCUCAACACAGCGUGUCAAAGUGGCGGUGGCUAGACUUCC, the self-cleavage amounted to 0.38.
To GACAGAGCUCAACACAGCGUGUCACAGUAGCUGUGGCUAGACUGCC belongs 0.41; to GACAGAGCUCAACACAAUGUGGCCAAGUGGCUGUGGCUAGUCUGCC, 0.09.
GACAGAGCUCAACACAGCGUUGCCAAGUGGCUGUGGAUACACUGCC: the self-cleavage is 0.31.
Regarding GACAGAGCUCAACACACCGUGGGAAAGUAGCUGUGGCUAGACUGUC, the self-cleavage is 0.2.
For the variant GACAGAGCUCAACACAGCGUAGCAAAGUGGGUUUGGCUGGACUGCC, the self-cleavage was 0.13.
Turning to GACAGAGCUCAACACAGCGUGUAAAAGUGACUGUGGCUAGACUGCC, the self-cleavage worked out at 0.8.
The result for GACAGAGCUCAACACAUCGUGGAAAAAUGGCUGUGUCUAGACUGCC reads 0.07; that for GACAGAUCUCAACGCGGCGUGGCAACGUGGCUGAGGCCAGACUGUC, 0.02.
Regarding GACAGAUCUCAACCCAGCGUGGCAAAGUGGCUGUGGCUAGACUGCC, the self-cleavage is 0.6.
To GACAGACUUCAACACAGCUUGGCAAAGUGGCUUUGGCUACAUUGCC belongs 0.26.
For the variant GACAGAGCUCAACACAGCGUUGCAAAGUGGCUGUGGGUAGACUGCC, the self-cleavage was 0.14.
On to GACAGAGCUCAACACAGCGUGGCAAAUUGGAUGUGGCUAGACUGCC, for which the self-cleavage amounted to 0.19.
For the variant GACAGAGCUCAACACAACGUGGCAAAGUGACUGUGGCUAGACUCCC, the self-cleavage worked out at 0.22.
GACAGAGCUCAACACAACAUGGCAAAGUGGCUGUGGCUAGACUGCC: the self-cleavage was 0.25.
For the variant GACAGAGCUCAACACAGCUUGGCAAACUGGCUACGGCUAGAGUGCC, the self-cleavage is 0.42.
The result for GACAGAUCUCAACACAGCGUGGCAAAGUGGUUGUGGAUAGACUGCC reads 0.06; that for GACAGAGCUCAACACAGCGUGUCAAAGUGGCUGUGGCUGGACUGCC, 0.55.
The result for GACAUAGCUCAACAUAGCGUGGCAAAGUGGCUGUGGCUAUACUGCC reads 0.59.
On to GACAGAUCUCAACACAGCGUGGGAAAGUGGCUGUGGCUAGACUGCA, for which the self-cleavage was found to be 0.07.
For GACAGAGCUCAACACAGCGUAGCAAAGUGGCUGUAGCUUGACUGCC, the self-cleavage stood at 0.28.
To GACAGAGCUCAACACAGCAUGGCAAAGUGGGUGAGGCUAGACUGCC belongs 0.1; to GACAGAGCUCAACACACCGUGGCAAGGUGGCUGUGGCUAGAUUGAC, 0.21; to GACAGAGCUCAACACACCGUUGCAAAGUGGCUGUGGCUAGACUGCC, 0.1.
In the case of GACAGAGCUCAACACAGCUUGGCAAAGUGGCUGUGGCUAGAUUGCC, the self-cleavage stood at 0.1.
Consider GACAGAGCUCAACACAGCGUGGCAAACUGGCUGUGGCUAGACUGAC, for which the self-cleavage came out at 0.38.
The result for GACAGAUCUCAACACAGCGUGGCAUAGUGGCUGUGGAUAGACUGCC reads 0.03; that for GACAUAGCUCAAUACAGCGUGGCAAAGUGGCUGUGGCUAGACUGCA, 0.1; that for GACAGAGCUCAACACAACUGGGCCAAGUGGCUGUGGCUAGACUGCC, 0.08.
On to GACAGACCUCAACACAGCGUUACAAAGUGGUUGUGGCUAGACUGCC, for which the self-cleavage stood at 0.53.
The result for GACAGAGCUCAACACAGCGUGCCAAAGUGGCUGUAGCGAGACUGCC reads 0.02.
Regarding GACAGAGCUCAACACAGCGUGUCAAAGUGGCUGUGGCCAGACUGCC, the self-cleavage worked out at 0.32.
Take GACAGAGCUCAACACAGCGUGACAGAGUGGCUGUGGCUAGACUGCC: the self-cleavage came out at 0.25.
To GACAGAGCUCAACACAGCGUGGCAAAUUGGCUACGGAUAAACUGCC belongs 0.16; to GACAGAUCUAAACACAGCGCGGCAAGGUGGCUGUGUCUAGACUGCC, 0.02.
The result for GACAGAGCUCAACACAGCGUGGCAAAGUGCCUGUGGCUAAACUGCC reads 0.06; that for GACAGAGCUCAACACAGCGUGUCAAAGUUGCUGUGGCUAGACUGCC, 2.89; that for GACAGACAUCAACACCGCGUGGCAAAGUGGCUGUGGCUAGACUGCC, 0.84.
Consider GACAUAGCUCAACACAGCGUGGCAAAGUUGCUGUGGCUAGACUGCC, for which the self-cleavage was 0.33.
Turning to GACAGAGCUCAACACAGCGUGGCAAAGUCGCUGUGGCUAUACUGCC, the self-cleavage stood at 0.19.
For GACAGAUCUCAACACAGCGUUGCAAAGUGGCUGUGGCUAUACUGCC, the self-cleavage was 0.88.
In the case of GACAGAGCUCAACACAGCGUGGCAAAUUGGCUGUGGCUAGACUUCC, the self-cleavage was 0.33.
For GACAUAGCUCAACACAGCGUGGCAAAGUGGCUGUGGCUAGACUACC, the self-cleavage amounted to 0.13.
The result for GACAGAGCUCAACACAGCAUGGCCAAGUGGCUGUGGCUAGACUGCC reads 0.47.
The result for GACAGAGCUCAACACAGCGUGCCAAAGUGGCUGUGGCAAGACUGCC reads 0.58.
Consider GACAGAACUCCACACAGCGUGGCAAAGUCGCUGCGUCUAGCCUGUC, for which the self-cleavage turned out to be 0.
For GACAGACCUCAACACAGCGUGGCUAAGUGACUGUGACUAGACUGCC, the self-cleavage was 1.21.
Take GACAGAGCUCAACACAGCGUGCCACCGUGGCUGUGGCGAGACUGCC: the self-cleavage was found to be 0.
Turning to GACAGAGCUCAACACAGCGUGCCAAAAUGGCAAUGGCUAGACUGCC, the self-cleavage stood at 0.37.
For the variant GACAGAGCUCAACACAGCGUCCCAAAGGGGCUGUGGCUAGACUGCC, the self-cleavage worked out at 0.19.
For GACAGAGCUCAACACAUCGUGGCAAAGUGGCUGUGGUCGCACUGCC, the self-cleavage came out at 0.04.
For GACAUAGCUAAACACAGCGUGGCAAAGUGGCUGUGGUUCGAUUGCC, the self-cleavage came out at 0.02.
In the case of GACAGAGCUCAACACAGCGUGGCAAAGUGCCUAUGGCUAGACUGCC, the self-cleavage came to 0.18.
GACAGACCUCAACACAGCGUGGCAAAGUGGCUGUCGCUAGACUGCC: the self-cleavage came out at 0.16.
For GACAGACCUCAACACAGCGGGGCAAAGUGGCUGUGGAUAGACUGCC, the self-cleavage stood at 0.02.
As for GACAGAGCUCAACACAGCAUGGCAAAGUGGCUGUGGCUAGGCUGCC, the self-cleavage was determined as 0.63.
In the case of GACAGAGCUCAACACAGCAUGGCAAAGUGGCUGUGGCUGGACUGUC, the self-cleavage came out at 0.18.
Turning to GACAGAGCUCAACACAGCGUGGCAAAAUGGCUGUGGUUAGACUGCC, the self-cleavage is 0.18.
Take GACAGAUCUCAACACAGCGUGGGAAAGUGGCUGUGGCUAGACUGCC: the self-cleavage was 0.13.
The result for GACAGAGCUCAACACAGCGUGGCAAAUUGGCUGUGGCUAGACUGCA reads 1.4.
GACAGAGCUCAACACAGCGUGGCAAAGUUGCAGUGGUUAGACUGCC: the self-cleavage was determined as 0.57.
Regarding GACAGAGCUCAACACAGCCUGGCAAAGUGGCUGUGGCUGGACUGCC, the self-cleavage was found to be 0.1.
With GACAGAGCUCAACACAGCGUGGCAAAGUUGGUGAGGCUAGACUGGC, the self-cleavage is 0.11.
The result for GACAGAGCUCAACACAGCAUGGCAUAGUGGCGGAGGCUAGACUGCC reads 0.06.
Turning to GACAGAACCCAACACAGCGUGGCCAAGUGGCUGUGGCUAGACUGGC, the self-cleavage worked out at 0.05.
Take GACAGAGCUCAACACAGCGUGUCUAAGUGGCUGUGGCUAGACUGCC: the self-cleavage was 0.07.
As for GACAGAGCUCAACACACCGUGGCAAAGUGGCUGUGGCUAGACUGCA, the self-cleavage was 0.35.
To GACAGAGCUCAACACAGCGUGGCAAAAAGGCUGUGGCUAGAGUGCC belongs 0.02; to GACAGACCUCAACACAGCGUGGCCAAGUGGCUGUGGCUAGACUCCC, 0.3.
In the case of GACAGAGCUCAACACACCGUGUCAAAGUGGCUGUGGCUAUACUGCC, the self-cleavage came to 0.15.
The result for GACAGAGCUCAACACAGCUUGGCAAAGUGGCUGUGGUUAGACCGCC reads 0.1; that for GACAUAGCUCAACACAGCGUGGCAAAGUGGCUUUGGCUAGACUGCC, 0.13; that for GACAUAGCUCAACACAGCGUGGCAAAGUGGCUAUGGCCAGACUGCC, 0.02.
Take GACAGAGCUCAACACAGCGUGGCAAAGUGUGUGUGGCUAGAAUGCC: the self-cleavage was found to be 0.12.
On to GACAGAUCUCAACACAGCGUGGCAAAGGGGCUGUUGCUAGACUGCC, for which the self-cleavage amounted to 0.01.
As to GACAGAGCUCAACACAGCCUGGCAAAGUGGCCGUGGCUAGACUGCC, the self-cleavage came to 0.29.
The result for GACAGAGCUCAACACAGCAUGGCAAAGUGGCUUUGGCUAGAAUGCC reads 0.1; that for GACAGAUCUCAACACAGCGAGGCAAAGUGGCUGUGGCUAGACUGCC, 0.08; that for GACAGAGCUCAACACAUCGUGGCAAAGUGGCUGUGGCUAGAAUGCC, 0.12.
Turning to GACAGAACUCAACCCAGCGUGGCAAAGUGGCUGUGGCUAGACUGCC, the self-cleavage was 0.12.
For the variant GACAGAACUCAACACAGCGUGGCAAAGUGGCUGUCGCUAGACUGCC, the self-cleavage stood at 0.06.
Regarding GACAGAACUCAACACAGCGUGGCAAAGUGGCUGUAGCUAGACUGCC, the self-cleavage came out at 2.05.
GACAGAGCUCAACACAGCGUGUCAAAGUCGCUGUGCCUCGAGUGCC: the self-cleavage worked out at 0.03.
